# Results from the supplement of paper PMC8728848.
# Some of the results follow.
# B1: Gal 8 (Mus musculus), Q9JL15 (protein)
# chain: MGGSHHHHHHGMASMLSLNNLQNIIYNPIIPYVGTITEQLKPGSLIVIRGHVPKDSERFQVDFQLGNSLKPRADVAFHFNPHFKRSSCIVCNTLTQEKWGWEEITYDMPFRKEKSFEIVFMVLKNKFQVAVNGRHVLLYAHRISPEQIDTVGIYGKVNIHSIGFRFSSASALPHTLGDLQSMETSALGLTQINRENIQKPGKLQLSLPFEARLNASMGPGRTVVIKGEVNTNARSFNVDLVAGKTRDIALHLNPHLNVKAFVRNSFLQDAWGEEERNITCFPFSSGMYFEMIIYCDVREFKVAINGVHSLEYKHRFKDLSSIDTLSVDGDIRLLDVRSW
# Key:
# Assay in all cases: glycan array binding signal (z-score within array); higher = stronger binding
# Conditions in all cases: glycan notation: IUPAC condensed, linker removed; mutation: R82H, R255H
# [1] = molecular target: Neu5Ac(a2-6)Gal(b1-4)GlcNAc(b1-2)Man(a1-3)[GlcNAc(b1-4)][Neu5Ac(a2-6)Gal(b1-4)GlcNAc(b1-2)Man(a1-6)]Man(b1-4)GlcNAc(b1-4)GlcNAc
# Procedure, shortened: (§1)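 The binding signal is a Z-score computed within each array. Data were drawn from 3228 arrays in the Consortium for Functional Glycomics database, restricted to those with a known protein sequence. Scores were averaged over arrays of the same protein sequence at different concentrations or buffers, and over linkers, and negative values can be taken as non-binding.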
# [2] = molecular target: Neu5Ac(a2-6)Gal(b1-4)GlcNAc(b1-2)Man(a1-3)[Man(a1-6)]Man(b1-4)GlcNAc(b1-4)GlcNAc
# Procedure, shortened: as §1
# [3] = molecular target: Neu5Ac(a2-6)Gal(b1-4)GlcNAc(b1-2)Man(a1-3)[Neu5Ac(a2-3)Gal(b1-4)GlcNAc(b1-2)Man(a1-6)]Man(b1-4)GlcNAc(b1-4)GlcNAc
# Procedure, shortened: as §1
# [4] = molecular target: Neu5Ac(a2-6)Gal(b1-4)GlcNAc(b1-2)Man(a1-3)[Neu5Ac(a2-6)Gal(b1-4)GlcNAc(b1-2)Man(a1-6)]Man(b1-4)GlcNAc(b1-4)GlcNAc
# Procedure, shortened: as §1
# [5] = molecular target: Neu5Ac(a2-6)Gal(b1-4)GlcNAc(b1-2)Man(a1-3)[Neu5Ac(a2-6)Gal(b1-4)GlcNAc(b1-2)Man(a1-6)]Man(b1-4)GlcNAc(b1-4)[Fuc(a1-6)]GlcNAc
# Procedure, shortened: as §1
# [6] = molecular target: Neu5Ac(a2-6)Gal(b1-4)GlcNAc(b1-2)Man(a1-6)Man(b1-4)GlcNAc(b1-4)GlcNAc
# Procedure, shortened: as §1
# [7] = molecular target: Neu5Ac(a2-6)Gal(b1-4)GlcNAc(b1-2)Man(a1-6)[Gal(b1-4)GlcNAc(b1-2)Man(a1-3)]Man(b1-4)GlcNAc(b1-4)GlcNAc
# Procedure, shortened: as §1
# [8] = molecular target: Neu5Ac(a2-6)Gal(b1-4)GlcNAc(b1-2)Man(a1-6)[GlcNAc(b1-2)Man(a1-3)]Man(b1-4)GlcNAc(b1-4)GlcNAc
# Procedure, shortened: as §1
# [9] = molecular target: Neu5Ac(a2-6)Gal(b1-4)GlcNAc(b1-2)Man(a1-6)[Man(a1-3)]Man(b1-4)GlcNAc(b1-4)GlcNAc
# Procedure, shortened: as §1
# [10] = molecular target: Neu5Ac(a2-6)Gal(b1-4)GlcNAc(b1-2)[Neu5Ac(a2-6)Gal(b1-4)GlcNAc(b1-4)]Man(a1-3)[GlcNAc(b1-4)][Neu5Ac(a2-6)Gal(b1-4)GlcNAc(b1-2)[Neu5Ac(a2-6)Gal(b1-4)GlcNAc(b1-6)]Man(a1-6)]Man(b1-4)GlcNAc(b1-4)GlcNAc
# Procedure, shortened: as §1
# [11] = molecular target: Neu5Ac(a2-6)Gal(b1-4)GlcNAc(b1-2)[Neu5Ac(a2-6)Gal(b1-4)GlcNAc(b1-4)]Man(a1-3)[GlcNAc(b1-4)][Neu5Ac(a2-6)Gal(b1-4)GlcNAc(b1-4)Man(a1-6)]Man(b1-4)GlcNAc(b1-4)GlcNAc
# Procedure, shortened: as §1
# [12] = molecular target: Neu5Ac(a2-6)Gal(b1-4)GlcNAc(b1-2)[Neu5Ac(a2-6)Gal(b1-4)GlcNAc(b1-6)]Man(a1-6)[Neu5Ac(a2-6)Gal(b1-4)GlcNAc(b1-2)Man(a1-3)][GlcNAc(b1-4)]Man(b1-4)GlcNAc(b1-4)GlcNAc
# Procedure, shortened: as §1
# [13] = molecular target: Neu5Ac(a2-6)Gal(b1-4)GlcNAc(b1-3)Gal(b1-3)GlcNAc
# Procedure, shortened: as §1
# [14] = molecular target: Neu5Ac(a2-6)Gal(b1-4)GlcNAc(b1-3)Gal(b1-4)GlcNAc
# Procedure, shortened: as §1
# [15] = molecular target: Neu5Ac(a2-6)Gal(b1-4)GlcNAc(b1-3)Gal(b1-4)GlcNAc(b1-2)Man(a1-3)[Neu5Ac(a2-6)Gal(b1-4)GlcNAc(b1-3)Gal(b1-4)GlcNAc(b1-2)Man(a1-6)]GalNAc
# Procedure, shortened: as §1
# [16] = molecular target: Neu5Ac(a2-6)Gal(b1-4)GlcNAc(b1-3)Gal(b1-4)GlcNAc(b1-3)Gal(b1-4)GlcNAc
# Procedure, shortened: as §1
# [17] = molecular target: Neu5Ac(a2-6)Gal(b1-4)GlcNAc(b1-3)Gal(b1-4)GlcNAc(b1-3)Gal(b1-4)GlcNAc(b1-2)Man(a1-3)[Neu5Ac(a2-6)Gal(b1-4)GlcNAc(b1-3)Gal(b1-4)GlcNAc(b1-3)Gal(b1-4)GlcNAc(b1-2)Man(a1-6)]GalNAc
# Procedure, shortened: as §1
# [18] = molecular target: Neu5Ac(a2-6)Gal(b1-4)GlcNAc(b1-3)Gal(b1-4)GlcNAc(b1-3)GalNAc
# Procedure, shortened: as §1
# [19] = molecular target: Neu5Ac(a2-6)Gal(b1-4)GlcNAc(b1-3)Gal(b1-4)GlcNAc(b1-3)[Neu5Ac(a2-6)Gal(b1-4)GlcNAc(b1-3)Gal(b1-4)GlcNAc(b1-6)]GalNAc
# Procedure, shortened: as §1
# [20] = molecular target: Neu5Ac(a2-6)Gal(b1-4)GlcNAc(b1-3)Gal(b1-4)GlcNAc(b1-6)[Gal(b1-3)]GalNAc
# Procedure, shortened: as §1
# [21] = molecular target: Neu5Ac(a2-6)Gal(b1-4)GlcNAc(b1-3)Gal(b1-4)[Fuc(a1-3)]GlcNAc(b1-3)Gal(b1-4)[Fuc(a1-3)]GlcNAc
# Procedure, shortened: as §1
# [22] = molecular target: Neu5Ac(a2-6)Gal(b1-4)GlcNAc(b1-3)GalNAc
# Procedure, shortened: as §1
# [23] = molecular target: Neu5Ac(a2-6)Gal(b1-4)GlcNAc(b1-3)[Neu5Ac(a2-6)Gal(b1-4)GlcNAc(b1-6)]GalNAc
# Procedure, shortened: as §1
# [24] = molecular target: Neu5Ac(a2-6)Gal(b1-4)GlcNAc(b1-6)GalNAc
# Procedure, shortened: as §1
# [25] = molecular target: Neu5Ac(a2-6)Gal(b1-4)GlcNAc(b1-6)[Gal(b1-3)GlcNAc(b1-3)]Gal(b1-4)Glc
# Procedure, shortened: as §1
# [26] = molecular target: Neu5Ac(a2-6)Gal(b1-4)GlcNAc(b1-6)[Gal(b1-3)]GalNAc
# Procedure, shortened: as §1
# [27] = molecular target: Neu5Ac(a2-6)Gal(b1-4)GlcNAc6S
# Procedure, shortened: as §1
# [28] = molecular target: Neu5Ac(a2-6)GalNAc
# Procedure, shortened: as §1
# [29] = molecular target: Neu5Ac(a2-6)GalNAc(b1-4)GlcNAc
# Procedure, shortened: as §1
# [30] = molecular target: Neu5Ac(a2-6)GalNAc(b1-4)GlcNAc6S
# Procedure, shortened: as §1
# [31] = molecular target: Neu5Ac(a2-6)GlcNAc(b1-4)GlcNAc
# Procedure, shortened: as §1
binder,measurement,setting,value
B1,glycan array binding signal (z-score),[1],-0.267
same,glycan array binding signal (z-score),[2],-0.269
same,glycan array binding signal (z-score),[3],-0.269
same,glycan array binding signal (z-score),[4],-0.187
same,glycan array binding signal (z-score),[5],-0.251
same,glycan array binding signal (z-score),[6],-0.2
same,glycan array binding signal (z-score),[7],-0.264
same,glycan array binding signal (z-score),[8],-0.199
same,glycan array binding signal (z-score),[9],-0.265
same,glycan array binding signal (z-score),[10],-0.257
same,glycan array binding signal (z-score),[11],-0.236
same,glycan array binding signal (z-score),[12],-0.274
same,glycan array binding signal (z-score),[13],-0.165
same,glycan array binding signal (z-score),[14],-0.267
same,glycan array binding signal (z-score),[15],-0.102
same,glycan array binding signal (z-score),[16],-0.273
same,glycan array binding signal (z-score),[17],0.365
same,glycan array binding signal (z-score),[18],-0.253
same,glycan array binding signal (z-score),[19],-0.217
same,glycan array binding signal (z-score),[20],-0.258
same,glycan array binding signal (z-score),[21],-0.258
same,glycan array binding signal (z-score),[22],-0.062
same,glycan array binding signal (z-score),[23],-0.265
same,glycan array binding signal (z-score),[24],-0.126
same,glycan array binding signal (z-score),[25],-0.307
same,glycan array binding signal (z-score),[26],-0.257
same,glycan array binding signal (z-score),[27],-0.2
same,glycan array binding signal (z-score),[28],-0.271
same,glycan array binding signal (z-score),[29],-0.285
same,glycan array binding signal (z-score),[30],1.18
same,glycan array binding signal (z-score),[31],-0.323
